Results from the BET-seq Pho4 binding data (Le et al. 2018).
The other results are listed elsewhere or left out. Values were computed here from the reads of four pooled replicates and scatter widely.

What follows are sequences tested against T1, Pho4 (S. cerevisiae) (UniProt P07270) (assay: relative binding free energy (BET-seq); higher = weaker binding). Details: reference: library average.
T1 sequence: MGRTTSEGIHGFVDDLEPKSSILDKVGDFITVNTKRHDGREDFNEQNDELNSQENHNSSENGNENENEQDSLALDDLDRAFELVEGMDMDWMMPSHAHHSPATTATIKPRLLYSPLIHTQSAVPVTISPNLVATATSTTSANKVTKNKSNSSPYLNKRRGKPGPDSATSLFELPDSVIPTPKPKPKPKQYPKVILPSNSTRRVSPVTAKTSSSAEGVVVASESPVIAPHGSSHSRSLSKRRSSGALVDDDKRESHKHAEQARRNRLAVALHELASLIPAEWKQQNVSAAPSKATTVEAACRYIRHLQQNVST

Sequence | relative binding free energy [kcal/mol]
GGTGGCACGTGGAGGC | -0.07
TTTACCACGTGAAGGT | 0.22
GTTACCACGTGCGTGG | 0.06
GGGTGCACGTGGTAAA | -0.01
TAAGGCACGTGTGTAG | -0.08
AGTGTCACGTGAGGGG | 0.2
TTGGGCACGTGGTATC | -0.1
ATAGCCACGTGGGGTA | -0.34
TTAAGCACGTGGTATC | -0.27
AGTGGCACGTGGGGTC | -0.31
TTGGGCACGTGTGAAT | -0.09
TGTTTCACGTGGTCTA | 0.24
GGGCTCACGTGCAGTG | 0.18
AGGTGCACGTGTCGTT | -0.03
TCATGCACGTGGAGTA | 0.03
AATGGCACGTGGCGAT | -0.07
TTTTTCACGTGATATC | 0.23
TGTTTCACGTGGATTC | 0.25
TCTGACACGTGGTTGA | -0.06
TGTTTCACGTGAATCT | 0.35
TCTGTCACGTGAGTTA | 0.34
GTATTCACGTGGGTTA | 0.19
GGGATCACGTGCGGGA | 0.21
GTTAGCACGTGAGGAT | 0.27
TCATTCACGTGTAGGG | 0.25
GTTGGCACGTGAAGCG | 0.07

Sequence | relative binding free energy [kcal/mol]
CTATCCACGTGGTGGG | 0.01
TCTATCACGTGAGTTG | 0.21
GGGGGCACGTGCGGCT | -0.16
AAGTTCACGTGGGTTT | 0.26
TAAGTCACGTGGTAAG | 0.04
GTTTTCACGTGTTATT | 0.17
TGTGGCACGTGGATTC | 0.03
TGATGCACGTGTACGG | -0.12
GGGAACACGTGCTGTG | -0.02
AGGGGCACGTGAACTG | 0.02
TGTAGCACGTGGAGAT | -0.16
TGTTCCACGTGTTTCG | 0.18
ATTGACACGTGTACGT | 0.04
TGTATCACGTGTTTAA | 0.05
AGCATCACGTGGGATG | 0.03
TTAGTCACGTGGTATT | -0.06
TGTTACACGTGACTTT | 0.26
GGTGACACGTGATAGT | 0.1
TCTATCACGTGAGGTC | 0.33
GGAAGCACGTGGGGAC | -0.17
GGTTACACGTGCGGTT | 0.26
AGTTTCACGTGTGATA | 0.2
GAGTTCACGTGATGCT | 0.45
TAGTTCACGTGGCTAG | 0.15
TTCGGCACGTGTGCGG | 0.03
CGGAGCACGTGGTCTG | -0.21

Sequence | relative binding free energy [kcal/mol]
ATTGGCACGTGTGACG | -0.04
GGTTTCACGTGTACAG | 0.1
TTCGGCACGTGGATTA | -0.05
GCTAGCACGTGGGTTG | -0.05
TGGGTCACGTGGTGGT | 0.11
TCTATCACGTGTGGGC | 0.25
ACGGTCACGTGATGAG | 0.34
CGGGGCACGTGGGGAA | -0.27
CGTCGCACGTGCTGGG | -0.05
TTTTACACGTGGTCAG | 0
CGTCTCACGTGGGATT | 0.24
TGGTTCACGTGCAAAT | 0.28
ACGGACACGTGGGGTG | -0.23
TTATACACGTGATTGA | 0
TTAGGCACGTGGACGT | -0.19
GCGGTCACGTGATTGT | 0.34
TTCATCACGTGTTTAA | 0.03
GAGAGCACGTGGAAGG | -0.06
AGTGGCACGTGTGTCT | -0.08
CATAGCACGTGTAGTT | -0.02
TAGGTCACGTGGCTGC | -0.03
GGACGCACGTGTTGGG | -0.06
GTTTTCACGTGGTGTT | 0.32
AATTACACGTGTGGAT | 0.38
TTGGGCACGTGGCGAG | -0.23
AATATCACGTGTCTGG | 0.21

Sequence | relative binding free energy [kcal/mol]
GAAAGCACGTGTGTGG | -0.05
GCGTTCACGTGTGATA | 0.29
TTAGTCACGTGGTGGC | 0.05
ATTAACACGTGTGTCG | -0.04
TGAGGCACGTGGAAGA | 0.07
ATGAGCACGTGCGGTT | 0.02
GTAGCCACGTGTGTGG | 0.03
GTTTACACGTGGTATA | 0.1
ATGCGCACGTGGCTGT | -0.32
AGGGCCACGTGGTATT | -0.26
ATCATCACGTGTTTAT | 0.27
GAGGTCACGTGTCAGG | 0.19
TTGGTCACGTGTTTTA | 0.19
GAAAGCACGTGATTGG | 0.22
TTAGTCACGTGTAAAA | 0.16
ATGTGCACGTGTGAGC | 0.06
GCCATCACGTGGGTGG | 0.06
TATGTCACGTGCGTCT | -0.1
TAAGGCACGTGTGTGC | -0.1
TTTCACACGTGCAGGT | 0.23
ACTAGCACGTGTTTGG | -0.05
TTTTACACGTGGCGTT | 0.1
GTAAGCACGTGTTGGC | -0.05
GGGATCACGTGCGGAA | 0.2
ATGTACACGTGAAAGG | 0.28
GGTGCCACGTGGTGCG | -0.15

Sequence | relative binding free energy [kcal/mol]
AGGCGCACGTGCGCGG | -0.12
TATGTCACGTGTATAA | 0.09
GTGTTCACGTGCGGGT | 0.26
GTCGACACGTGGGAGT | -0.02
ATTGTCACGTGAGACG | 0.22
GCGGTCACGTGGTGTA | -0.01
AGTGGCACGTGAATCG | 0.12
TTAATCACGTGTCTTG | 0.05
TTAATCACGTGGTGAA | 0.23
TGTGACACGTGTGAGG | 0.04
TTTGTCACGTGTAACT | 0.18
GGTTTCACGTGATCAG | 0.27
TATTTCACGTGTCGCG | 0.22
GCAGTCACGTGGCTGT | 0.1
CGTGCCACGTGAAGGG | 0.08
GGGATCACGTGATGAG | 0.35
TAGTTCACGTGTTCCG | 0.3
AGTGTCACGTGTTACT | -0.06
AGAGGCACGTGGTATT | -0.25
GATAACACGTGAGTGT | 0.18
AGTAGCACGTGGTTCG | -0.21
TTCAGCACGTGGTCGG | -0.19
ATCTTCACGTGGAGGT | 0.25
ATGGTCACGTGGAGGT | 0.14
GAGTGCACGTGGTTGT | -0.07
TTTATCACGTGGAAAT | 0.29

Sequence | relative binding free energy [kcal/mol]
CGTAGCACGTGTTTAG | -0.07
CTGGGCACGTGAGATA | 0.21
AAGTTCACGTGTAAGT | 0.41
GGGGACACGTGAAGGA | 0.33
AACGGCACGTGTGGTA | -0.02
TGGAACACGTGGTAGC | 0
AGGGCCACGTGTACTG | 0.02
TGGTTCACGTGGGCTA | 0.02
AGGGGCACGTGCAGTG | -0.11
TTGTGCACGTGAGTAA | 0.11
GGTTACACGTGAATTA | 0.31
CTAGGCACGTGGTGAG | -0.08
TTGCTCACGTGTGAGT | 0.19
CGTATCACGTGGAGTT | 0.09
TGTTACACGTGGTAAA | 0.16
TTATGCACGTGATTCT | 0.07
GGAAGCACGTGATTGG | 0.01
AATTGCACGTGTTAAT | -0.04
TATAGCACGTGTGGCG | 0.03
GATGACACGTGTCGGG | 0.13
AATTACACGTGAAGTT | 0.38
CAGTGCACGTGTTGAG | -0.06
GACGTCACGTGGTGGT | 0.03
TTTCTCACGTGGAGTG | 0.19
CTGGTCACGTGTGCAG | 0.02
TTAGACACGTGAAAGG | 0.36

Sequence | relative binding free energy [kcal/mol]
TGCGTCACGTGTTAAG | 0.07
GTCATCACGTGGAGTG | 0.13
GGTTGCACGTGTTACG | 0.13
ATATGCACGTGTTTCG | -0.02
TTAGGCACGTGCGAGG | -0.12
GAATGCACGTGTGGTA | 0.01
GTCTTCACGTGAGTAT | 0.34
GTGGTCACGTGGTAGC | 0.13
ACCGGCACGTGTGTGT | -0.12
AGAGTCACGTGTACTG | 0.17
AGCGGCACGTGTGGCT | -0.11
AATTTCACGTGTGTTG | 0.34
CGTGGCACGTGATTGT | -0.07
TGGGCCACGTGGTGAG | -0.15
ATTTTCACGTGTTTAT | 0.28
CTGGTCACGTGGGCAG | -0.03
ATATTCACGTGTGCAG | 0.08
CATAGCACGTGTGTGC | 0.05
TGAAACACGTGGTAGG | -0.05
CGGATCACGTGGGTTG | -0.1
AGTTGCACGTGTAGTG | 0.03
ATATTCACGTGAAGGT | 0.29
GCGCGCACGTGGGGTG | -0.36
GATTTCACGTGTATGA | 0.3
TGGTTCACGTGAACGG | 0.35
TTTCTCACGTGCGTTT | 0.21

Sequence | relative binding free energy [kcal/mol]
GGTCCCACGTGGGCGT | -0.17
TTTTACACGTGCTGGC | 0.14
AGAGTCACGTGATTTT | 0.32
TACTTCACGTGGGAGT | 0.06
AGTTTCACGTGTCGTC | 0.22
CCAGGCACGTGGGAGG | -0.16
GGCGGCACGTGTGAGT | 0.03
TTAGGCACGTGGAGGA | 0.05
TTAGACACGTGTGTGT | -0.04
TTGCTCACGTGGGAAA | 0.2
GGTATCACGTGTTTGC | 0.25
GATTGCACGTGGTGAG | -0.03
ATGTTCACGTGGCAAT | 0.34
TTTTCCACGTGTGTTC | 0.26
GGACGCACGTGGTTTA | -0.07
GTGTACACGTGAATGT | 0.34
TGGGGCACGTGAAAAT | 0.35
TATGCCACGTGGAGGG | -0.06
ATCAACACGTGGGTTA | -0.07
TGAGGCACGTGGGATC | -0.11
TGTCGCACGTGTTGTT | -0.1
TGATGCACGTGGTCGA | -0.08
TTCAGCACGTGGTGCG | -0.16
TATGACACGTGGTTGC | -0.03
CTTGTCACGTGGTAGC | 0.09
TAGGCCACGTGTGGAT | 0.01

Sequence | relative binding free energy [kcal/mol]
AGGTGCACGTGCATTT | -0.03
GCGTGCACGTGTCGGG | -0.02
TGGTACACGTGTCAGG | 0
AGGGGCACGTGGTTAT | -0.25
ACGTACACGTGTAGTT | 0.07
ATCGTCACGTGTACGT | 0.1
TAGTTCACGTGCGGAT | 0.24
GTTGGCACGTGTTTGC | 0.06
ATATGCACGTGGTGGA | -0.1
AGGGTCACGTGCGGAT | 0.02
GGAAGCACGTGCCGGG | -0.1
GAGTACACGTGTAGAT | 0.35
AGAATCACGTGGAGTT | 0.27
CTAGGCACGTGTTGGT | -0.02
CAGGACACGTGGGGTG | -0.11
TGCCTCACGTGTGGTG | 0.15
TAGTACACGTGTTGCT | -0.04
GGTGACACGTGGTAAA | -0.03
GAATTCACGTGAGTGG | 0.46
TAAGGCACGTGAGGAA | 0.17
GGTTTCACGTGATTAC | 0.39
CTGTTCACGTGATGTT | 0.22
